These results are taken from article PMC4336329 (PLoS ONE, 2015).

In all, about 310,000 compounds went through this assay and about 2,200 (0.71%) showed an effect of 50% or more. Effects have a minus sign here. The list shows a part of the results.

The target in the assay is human ether-à-go-go-related gene (hERG) potassium channel (human, UniProt Q12809). The experiment in a line: primary screen, population patch clamp on CHO cells stably expressing hERG.
human ether-à-go-go-related gene (hERG) potassium channel, sequence (Q12809 whole entry, looked up): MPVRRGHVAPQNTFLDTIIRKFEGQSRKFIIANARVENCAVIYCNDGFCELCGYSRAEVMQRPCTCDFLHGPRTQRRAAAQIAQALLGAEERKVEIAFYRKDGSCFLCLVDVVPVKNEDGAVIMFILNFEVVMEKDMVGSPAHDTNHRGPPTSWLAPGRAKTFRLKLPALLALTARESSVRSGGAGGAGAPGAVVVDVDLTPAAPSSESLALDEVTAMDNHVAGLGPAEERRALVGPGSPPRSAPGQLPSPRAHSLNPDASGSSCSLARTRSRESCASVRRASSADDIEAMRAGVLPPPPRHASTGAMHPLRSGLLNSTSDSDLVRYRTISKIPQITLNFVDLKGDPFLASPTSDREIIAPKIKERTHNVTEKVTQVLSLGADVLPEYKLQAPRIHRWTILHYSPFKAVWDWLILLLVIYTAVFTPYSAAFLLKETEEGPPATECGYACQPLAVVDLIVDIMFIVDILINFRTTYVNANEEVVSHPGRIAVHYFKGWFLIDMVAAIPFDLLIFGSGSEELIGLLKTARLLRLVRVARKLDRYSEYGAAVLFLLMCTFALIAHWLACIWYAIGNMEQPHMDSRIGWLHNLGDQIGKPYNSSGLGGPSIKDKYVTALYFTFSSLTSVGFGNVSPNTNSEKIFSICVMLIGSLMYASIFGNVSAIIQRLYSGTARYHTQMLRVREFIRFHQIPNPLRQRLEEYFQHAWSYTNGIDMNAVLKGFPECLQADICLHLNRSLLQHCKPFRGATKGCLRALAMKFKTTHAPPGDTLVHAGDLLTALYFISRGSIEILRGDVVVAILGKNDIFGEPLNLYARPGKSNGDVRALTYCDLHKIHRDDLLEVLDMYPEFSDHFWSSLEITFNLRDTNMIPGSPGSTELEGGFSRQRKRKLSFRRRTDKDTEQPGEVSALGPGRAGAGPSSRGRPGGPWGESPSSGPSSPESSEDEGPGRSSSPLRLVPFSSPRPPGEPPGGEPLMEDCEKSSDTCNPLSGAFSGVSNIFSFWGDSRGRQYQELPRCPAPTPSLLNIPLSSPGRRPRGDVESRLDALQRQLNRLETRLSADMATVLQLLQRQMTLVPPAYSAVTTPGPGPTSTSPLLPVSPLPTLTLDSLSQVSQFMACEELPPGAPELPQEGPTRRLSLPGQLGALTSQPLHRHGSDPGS
On to `CCOC(=O)[C@H]1[C@H]2COc3ccccc3[C@@H]2N2C(=O)[C@@H](CO)NC(=O)[C@@]12C`, for which the “hERG current change (%, negative = inhibition) at 1uM” value came out at 22.5%. As for `CC(=O)Oc1ccc(Cn2cnc3cc4ccccc4cc32)cc1`, the figure is -2.54%; as for `COc1ccc(CN(C)C(C)C(=O)Nc2ccc(S(=O)(=O)N3CCCCC3)cc2)cc1F` (centres unmarked), 5.25%. Next, `O=[N+]([O-])c1ccc(NS(=O)(=O)c2cccc3cccnc23)cc1`: 16.3%. For `COc1ccc(OC)c(C2=Nn3c(nnc3-c3ccco3)SC2)c1`, the “hERG current change (%, negative = inhibition) at 1uM” value was determined as 8.21%. As for `CC(C)[C@H](NC(=O)c1cccc(CN(Cc2ccccc2)C(=O)/C=C/c2ccccc2)c1)C(=O)O`, the figure is 9.42%. As for `CCCNc1ncnc2onc(C)c12`, the figure is 16.1%. As for `CC(Cl)C(=O)NN=C(c1ccccc1)c1ccccc1` (centres unmarked), the figure is 9.19%; as for `CCC(=O)NC(=Nc1nc2ccccc2s1)NC(=O)CC`, 16.3%.

Regarding `COc1ccc(N2CCN(C(=O)Cc3csc(NC(=O)Nc4ccccc4OC)n3)CC2)cc1`, the “hERG current change (%, negative = inhibition) at 1uM” value is given as 9.92%. Take `Cc1cccc(OCCCC(=O)Nc2ccc3c(c2)OCO3)c1`: the “hERG current change (%, negative = inhibition) at 1uM” value is -0.547%.

For the compound `Cl.Nc1nc(N2CCN(c3ccccn3)CC2)nc2ccccc12`, the “hERG current change (%, negative = inhibition) at 1uM” value was -52.8%. For `CSc1sc(C(=O)O)c(C)c1C(C)=O`, the “hERG current change (%, negative = inhibition) at 1uM” value was determined as 15.7%.

With `Cc1c(NC(=O)c2ccc3c(c2)C(=O)N(CC2CCCO2)C3=O)cccc1C(=O)O` (centres unmarked), the “hERG current change (%, negative = inhibition) at 1uM” value is recorded as 18.5%.

`O=C(NCc1ccc(F)cc1)C1CCN(S(=O)(=O)c2ccc3c(c2)OCCCO3)CC1`: the “hERG current change (%, negative = inhibition) at 1uM” value is given as -1.19%. Next, `Cc1cccc(OCC(=O)Nc2ccccc2C(=O)N2CCOCC2)c1`: 9.23%.

Consider `CCOc1ccc(CN=C(N)N=C(N)N)cc1Cl.Cl`, for which the “hERG current change (%, negative = inhibition) at 1uM” value is given as -4.38%. As for `CC(=O)CCCCn1c(=O)c2c(ncn2C)n(C)c1=O`, the figure is 8.05%; as for `Cc1cccc(NC(=O)CN2CCN(C(=O)c3ccc(OCc4cn5ccccc5n4)cc3)CC2)c1C`, -14.5%. Next, `Cc1ccc(/C=C2\CCn3c2nc2cc(C(=O)O)ccc2c3=O)c(C)c1`: 13.2%. As for `CCN(CCn1cccn1)Cc1ccccc1OCC(O)CN1CCc2ccccc2C1` (centres unmarked), the “hERG current change (%, negative = inhibition) at 1uM” value is reported as -3.69%. For the compound `O=C(Nc1ccc(Cl)cn1)C1CCCN1S(=O)(=O)c1ccc(Cl)cc1` (centres unmarked), the “hERG current change (%, negative = inhibition) at 1uM” value was -1.55%. Next, `CC1CN(c2nc3ccccc3nc2C(C#N)C(=O)NCc2ccc3c(c2)OCO3)CC(C)O1` (centres unmarked): 13.5%; `CC(=O)Nc1cccc(C(=O)OCC(=O)NCc2ccc(F)cc2)c1`: 0.244%. As for `CCOC(=O)C1=NNC2C(=O)N(CC)C(=O)C12` (centres unmarked), the figure is 2.82%; as for `C/C(CC(=O)NC1CCCCC1)=N\NC(=O)c1ccccc1C`, 12.2%; as for `COc1ccc(OCCC(=O)OCC(=O)c2ccc[nH]2)cc1`, 16.8%. Next, `Cc1ccc(S(=O)(=O)Nc2cccc(C(=O)N3CCOCC3)c2)cc1`: 6.98%; `COc1cc(N/C=C(\C(C)=O)c2ccccc2)cc(OC)c1`: 8.39%. For `Cc1ccc2nc(C)cc(SCC(=O)N/N=C/c3ccco3)c2c1`, the “hERG current change (%, negative = inhibition) at 1uM” value is listed as 6.8%. In the case of `CCNC(=S)Nc1ccc(Cl)c([N+](=O)[O-])c1`, the “hERG current change (%, negative = inhibition) at 1uM” value was -2.68%. Turning to `CC(=O)Nc1c2c(nn1-c1ccccc1C)CS(=O)C2` (centres unmarked), the “hERG current change (%, negative = inhibition) at 1uM” value was determined as 9.69%.

With `O=C(CSc1nc2[nH]ncc2c(=O)[nH]1)N1CCCCC1`, the “hERG current change (%, negative = inhibition) at 1uM” value is 18.1%. Consider `Cc1ccc2oc(-c3cccc(NC(=O)Cn4cnc5c(=O)n(C)c(=O)n(C)c54)c3)nc2c1`, for which the “hERG current change (%, negative = inhibition) at 1uM” value came to 5.3%. Next, `Cc1ccc2nc3c(cc(C(=O)NCCN4CCOCC4)c(=N)n3CCCN3CCOCC3)c(=O)n2c1`: 5.89%; `CC(C)(C)NC(=O)COC(=O)c1ccc(S(=O)(=O)N2CCCC2)cc1`: 3.36%. Next, `O=C(COC(=O)c1ccc(F)cc1)NCCc1ccc(F)cc1`: 2.89%; `Cc1noc(C)c1S(=O)(=O)N1CCC(C(=O)O)CC1`: 4.03%; `N#CC1=C(N)SC(N)=C(C#N)C1c1ccoc1`: 2.57%. As for `Cc1ccc(S(=O)(=O)N/N=C/c2cccc(OC3CSC3)c2)cc1`, the figure is 0.22%; as for `CC1CCc2[nH]c3ccc(C(=O)N4CCCC(C(F)(F)F)C4)cc3c2C1` (centres unmarked), 21.6%. Consider `Cc1ccc(-c2nnc(CSc3nnc(COc4ccccc4)n3-c3ccccc3)o2)cc1`, for which the “hERG current change (%, negative = inhibition) at 1uM” value turned out to be 7.62%. Next, `CN=Cc1cc(-c2ccccc2)sc1O`: 10.5%; `CCc1nn(CC(=O)NCCCN2CCOCC2)c(=O)c2cc3sccc3n12`: 15.6%; `O=C(c1cc(S(=O)(=O)N2CCCC2)c(Cl)cc1Cl)N1CCCC1`: 13.6%. As for `CCN(CC)C(=O)Cn1cc(S(=O)(=O)CC(=O)N2CC(C)OC(C)C2)c2ccccc21` (centres unmarked), the figure is 1.72%; as for `O=C(O)/C=C/C(=O)c1ccc(O)cc1`, 10.6%. As for `O=C(Nc1ccc(C(=O)N2CCCCC2)cc1)Nc1cccc(Cl)c1`, the figure is 16.9%; as for `CCC1CCCCN1CCCNC(=O)CNC(=O)c1nn(-c2ccc(OC)c(Cl)c2)c(=O)c2ccccc12` (centres unmarked), 2.34%. In the case of `O=[N+]([O-])c1ccc(Cl)c(C2Nc3cccc4cccc(c34)N2)c1`, the “hERG current change (%, negative = inhibition) at 1uM” value is 13%.

As for `N#Cc1c(N)n(-c2ccccc2)c(=O)c2cc([N+](=O)[O-])ccc12`, the “hERG current change (%, negative = inhibition) at 1uM” value came out at 18%. For the compound `CCOC(=O)N1CCN(C(=O)c2ccc3c(c2)N(Cc2ccc(C)cc2)CCS3)CC1`, the “hERG current change (%, negative = inhibition) at 1uM” value is listed as 14.6%. As for `Cc1cc(NC(=O)CSCC(=O)Nc2cc(C(F)(F)F)ccc2N2CCCC2)no1`, the figure is 16.5%; as for `CCN(CCCNC(=O)CCNC(=O)Cn1cnc2ccccc2c1=O)c1cccc(C)c1`, 7.36%. Next, `O=C(NNC(=O)c1ccccn1)c1cccc([N+](=O)[O-])c1`: 9.38%; `Cc1ccc(S(=O)(=O)N2CCCC2C(=O)NCc2ccccc2Cl)cc1` (centres unmarked): 10.4%.
